Results as given in patent US6670161B1, “Compositions and methods for template-dependent enzymatic synthesis of nucleic acid” (The Board of Trustees of the Leland Stanford Jr. University, priority 1991, dated 2003).

Target: T1, recombinant human DNA polymerase α (Homo sapiens, UniProt P09884)
T1 construct: AcHDP α, expresses the full length recombinant human DNA polymerase α catalytic subunit from its natural ATG start codon; made in house; host or cells: Spodoptera frugiperda Sf9 cells infected with AcHDPα baculovirus
T1 sequence (P09884 1-1462): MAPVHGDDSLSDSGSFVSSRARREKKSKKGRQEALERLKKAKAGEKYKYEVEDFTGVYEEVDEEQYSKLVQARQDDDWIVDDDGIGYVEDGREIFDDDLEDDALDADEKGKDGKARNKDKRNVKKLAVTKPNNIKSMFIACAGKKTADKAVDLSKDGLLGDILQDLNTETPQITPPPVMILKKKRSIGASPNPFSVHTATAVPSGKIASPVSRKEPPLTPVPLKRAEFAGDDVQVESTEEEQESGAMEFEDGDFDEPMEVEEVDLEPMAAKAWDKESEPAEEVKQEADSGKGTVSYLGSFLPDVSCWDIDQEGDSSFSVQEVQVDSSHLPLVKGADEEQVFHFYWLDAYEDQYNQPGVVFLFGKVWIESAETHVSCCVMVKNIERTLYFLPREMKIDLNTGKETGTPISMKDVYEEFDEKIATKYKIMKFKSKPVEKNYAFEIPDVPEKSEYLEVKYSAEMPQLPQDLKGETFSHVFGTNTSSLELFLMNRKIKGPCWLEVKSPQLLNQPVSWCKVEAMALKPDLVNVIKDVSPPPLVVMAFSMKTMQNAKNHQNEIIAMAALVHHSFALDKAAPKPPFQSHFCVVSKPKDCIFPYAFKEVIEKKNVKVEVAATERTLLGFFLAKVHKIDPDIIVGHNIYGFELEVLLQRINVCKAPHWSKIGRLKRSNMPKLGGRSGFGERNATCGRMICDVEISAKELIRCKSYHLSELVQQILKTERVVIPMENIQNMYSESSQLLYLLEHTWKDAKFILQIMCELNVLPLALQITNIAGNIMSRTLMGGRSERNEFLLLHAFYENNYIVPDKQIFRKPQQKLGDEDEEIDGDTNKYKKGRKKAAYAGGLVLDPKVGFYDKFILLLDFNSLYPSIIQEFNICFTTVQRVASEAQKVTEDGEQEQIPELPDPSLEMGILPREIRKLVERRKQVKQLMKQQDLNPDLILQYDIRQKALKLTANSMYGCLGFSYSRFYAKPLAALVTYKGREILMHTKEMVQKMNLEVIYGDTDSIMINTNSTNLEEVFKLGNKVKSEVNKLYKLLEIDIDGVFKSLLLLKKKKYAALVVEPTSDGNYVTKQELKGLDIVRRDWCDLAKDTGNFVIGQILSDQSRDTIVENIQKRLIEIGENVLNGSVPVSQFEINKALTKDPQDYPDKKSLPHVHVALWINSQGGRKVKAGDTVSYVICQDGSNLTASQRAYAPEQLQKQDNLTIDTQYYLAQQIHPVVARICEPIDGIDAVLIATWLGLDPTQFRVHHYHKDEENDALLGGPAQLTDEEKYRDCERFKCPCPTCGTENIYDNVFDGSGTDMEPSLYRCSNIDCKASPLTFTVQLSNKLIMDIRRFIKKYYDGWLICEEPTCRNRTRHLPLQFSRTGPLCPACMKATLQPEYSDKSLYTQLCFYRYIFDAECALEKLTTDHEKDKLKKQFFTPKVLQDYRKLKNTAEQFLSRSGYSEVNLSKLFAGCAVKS
Test: Primer extension test for incorporation of nucleotide analog
Format: biochemical
Conditions: 0.07 units recombinant polymerase α, 0 to 10 minutes

Cc1cn([C@H]2C[C@H](O)[C@@H](COP(=O)(O)OP(=O)(O)OP(=O)(O)O)O2)c(=O)[nH]c1=O [dTTP]
incorporation, standing start primer-template: extends the original primer length of 18 bases to 19 bases
